Where “and” joins values, the source holds several entries; their conditions need not be identical. Identical values can stand only once. Out of some 150,000 compounds screened, about 6,500 (4.3%) were called active. Another 12% or so got no clear call; they are omitted. Calls come from the whole dose curve; as a rule, active = well fitted inhibition curve with a large enough effect (not every such curve was filed as active); inconclusive = small, poorly fitted or top-dose-only effect, or another doubt; inactive = no such curve, though single readings can be large or run the other way. The entries are a selection whose mix differs from that of the whole data set. A structure can be active in one record and inactive in another.
% is set by controls: 0 for no effect and ±100 for the full control effect; potency is the fitted concentration of half-maximal effect.

The experiment deals with 15-hydroxyprostaglandin dehydrogenase [NAD(+)] (Homo sapiens) (UniProt P15428). In words: qHTS Assay for Inhibitors of HPGD (15-Hydroxyprostaglandin Dehydrogenase). The settings on record: purified HPGD, NADH fluorescence kinetic, PGE2 substrate; activity change, negative = inhibition: active compounds read low. The procedure, abridged: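 20 nM HPGD preincubated 15 min at room temperature with compound in 50 mM Tris-HCl pH 8, 0.01% Tween 20. Started with 1 mM NAD+ and 30 uM prostaglandin E2; NADH fluorescence (360/450 nm) read 5 times over 30-s intervals, last minus first.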
Chain of UniProt P15428 (P15428 whole entry, looked up): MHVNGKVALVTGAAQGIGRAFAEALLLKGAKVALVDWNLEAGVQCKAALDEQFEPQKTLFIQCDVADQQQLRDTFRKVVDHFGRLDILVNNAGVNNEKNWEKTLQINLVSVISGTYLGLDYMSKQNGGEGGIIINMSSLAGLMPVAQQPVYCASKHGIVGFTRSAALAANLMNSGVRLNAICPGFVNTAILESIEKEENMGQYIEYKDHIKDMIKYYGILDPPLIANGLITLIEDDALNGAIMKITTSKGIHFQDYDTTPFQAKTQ
For orientation: Quantitative high-throughput screening tests each substance at several concentrations.
In the case of `CC1=C(C(=O)O)N2C(=O)C(NC(=O)C(N)c3ccccc3)C2SC1` (centres undefined), the activity change, negative = inhibition was inactive: -10.2%. On the same count and under the same terms, under `Brc1ccc(Cn2c(-c3ccc(Br)o3)nc3ccccc32)o1` stands inactive: 98.1%; under `CC1(C)S[C@@H]2[C@H](NC(=O)[C@H](N)c3ccccc3)C(=O)N2[C@H]1C(=O)O`, inactive: -10.5% and inactive: -3.19% and inactive: -23.7%.

For `NC(Cc1cc(I)c(Oc2ccc(O)c(I)c2)c(I)c1)C(=O)O` (centres undefined), the activity change, negative = inhibition is inactive: -24.5%. Take `COCC(C)NC(=O)c1ccc(N(C)C)cc1` (centres undefined): the Potency was active: 22.4 µM. Turning to `Cc1cc(=O)c2cc(Br)ccc2[nH]1`, the activity change, negative = inhibition is inactive: 69.8%. Turning to `O=C(O)c1ccccc1OP(=O)(O)O`, the activity change, negative = inhibition is inactive: -26.6%. The same measure, in the same setting: under `Nc1cc(=O)[nH]c(=O)n1Cc1ccccc1` stands inactive: 2.74%; under `N=C(N)SCc1ccc(Cl)cc1Cl`, inactive: -9.37%; under `COC(=O)[C@@]1(Cc2ccc(OC)cc2)[C@H]2c3cc(C(=O)N4CCCC4)n(Cc4ccc(C)o4)c3C[C@H]2CN1C(=O)c1ccccc1`, inactive: -9.49%.

Consider `Cc1cccc(NC(=O)c2ccc([N+](=O)[O-])o2)n1`, for which the activity change, negative = inhibition was inactive: 35.6%. For `Cc1csc2ncc(C(=O)Nc3ccc4c(c3)OCCO4)c(=O)n12`, the activity change, negative = inhibition is inactive: 99.5%. With `C[C@H](N)c1nnc(SCc2c(Cl)cccc2Cl)o1`, the Potency was active: 31.6 µM.

Take `COc1ccc2nc3c(c(-c4ccccc4)c2c1)CCC3`: the activity change, negative = inhibition is inactive: -21.9%. On the same count and under the same terms, under `CC(C)OC(=O)C(C)(C)Oc1ccc(C(=O)c2ccc(Cl)cc2)cc1` stands inactive: -9.69% and inactive: -28.4% and inactive: -23.2%. Consider `CCOc1ccc(C(=O)Nc2nnc(C(C)C)s2)cc1OCC`, for which the Potency was active: 28.2 µM. On the same count and under the same terms, under `O=C(COC(=O)c1ccccc1Nc1ccc(SC(F)F)cc1)NCc1ccco1` stands active: 14.1 µM. In the case of `CCCCCC(O)c1cccc(OCc2ccc3ccccc3n2)c1` (centres undefined), the activity change, negative = inhibition is inactive: -26.2% and inactive: -5.68%. As to `N#C/C(=C/c1cn(-c2ccccc2)nc1-c1cccc(S(=O)(=O)N2CCOCC2)c1)C(=O)NCc1ccco1`, the activity change, negative = inhibition was inactive: 997%.

In the case of `Cc1ccc(/C=C(\C#N)C(=O)Nc2cccc3ncccc23)o1`, the Potency is active: 39.8 µM. As to `COC(=O)Cc1c(C)c2ccc(OC(=O)c3ccccc3)cc2oc1=O`, the activity change, negative = inhibition was inactive: 37.3%.

On to `COc1c(C)c2c(c(O)c1C/C=C(\C)CCC(=O)O)C(=O)OC2`, for which the activity change, negative = inhibition is inactive: -24.7%. Same read-out and setting: with `C=CCOC(=O)C1=C(C)NC(C)=C(C(=O)OCC=C)C1c1cn(-c2ccccc2)nc1-c1ccco1` the figure was inactive: 32.8%; with `COc1ccc2cc(CN(CC3CCCO3)S(=O)(=O)c3ccccc3)c(=O)[nH]c2c1` (centres undefined), inactive: 35.4%. Same read-out and setting: under `Cc1cc(C)c2c(c1)C1C=CCC1C(c1ccc(S(=O)(=O)N3CCOCC3)cc1)N2` (centres undefined) stands inactive: -13.3%.

For the molecule `CC(C)NCC(O)c1ccc(O)c(O)c1` (centres undefined), the activity change, negative = inhibition was inactive: -5.4% [middle of 4 runs]. Still for that read-out and setting: with `Cc1noc(NS(=O)(=O)c2ccc(N/C=C/C(=O)c3ccc4c(c3)OCO4)cc2)c1C` the figure was inactive: -22.1%. Still for that read-out and setting: under `CC(=O)Nc1ccc(N(CC(O)Cn2c3ccccc3c3ccccc32)S(=O)(=O)c2ccc(C)cc2)cc1` (centres undefined) stands inactive: 229%. On the same count and under the same terms, with `CCn1c(C(=O)Nc2ccsc2C(=O)OC)cc2sc(Cl)cc21` the figure was inactive: 724%.

On to `CCOC(=O)C=Nc1c(N)n(C)c(=O)n(C)c1=O`, for which the activity change, negative = inhibition was inactive: 54%.

With `COc1ccc(Cl)cc1NC(=O)c1cc(-c2ccccc2O)n[nH]1`, the Potency is active: 1.41 µM. For the molecule `CC(C(=O)O)c1cccc(C(=O)c2ccccc2)c1` (centres undefined), the activity change, negative = inhibition was inactive: -8.39% and inactive: -16.9%. On the same count and under the same terms, under `CCc1nc(N)c(C#N)c(-c2ccc(OC)c(OC)c2)c1C` stands inactive: 42.4%. As for `C=CCn1c(SCC(=O)c2ccccc2)nnc1-c1ccc2c(c1)OCO2`, the Potency was active: 5.62 µM. Still for that read-out and setting: under `COc1cc(/C=N/NC(=O)c2ccc(O)cc2)ccc1Oc1ccc([N+](=O)[O-])cn1` stands active: 22.4 µM. For `CNc1ccccc1C(=O)OCC(=O)c1ccccc1`, the activity change, negative = inhibition was inactive: 80.2%. On the same count and under the same terms, under `C=C1c2c(Cl)ccc(O)c2C(O)=C2C(=O)[C@@]3(O)C(O)=C(C(N)=O)C(=O)[C@@H](N(C)C)[C@@H]3[C@@H](O)[C@H]12` stands inactive: -21.2%; under `Cc1cc(C)cc(NC(=O)/C(C#N)=C/c2cn(CC(=O)NCc3ccco3)c3ccccc23)c1`, inactive: 167%. Take `Cc1cc(SCC(=O)NCCC2=CCCCC2)nc2ccccc12`: the Potency is active: 25.1 µM. With `N#C/C(C(=O)Oc1ccccc1)=C1/Nc2ccccc2-c2ccccc21`, the activity change, negative = inhibition is inactive: 63.7%.

As for `O=C(CSc1nc2ccccc2nc1SCC(=O)N1CCCCC1)N1CCCCC1`, the Potency was active: 2.51 µM. On to `C/C(=C\COc1cc(=O)[nH]c2ccccc12)CCC(O)C(C)(C)O` (centres undefined), for which the activity change, negative = inhibition was inactive: -9.36%. The same measure, in the same setting: with `COc1cc2cc(Oc3ccc4ccc(=O)oc4c3)c(=O)oc2cc1O` the figure was inactive: -21.7%; with `N[C@@H](CCC(=O)N[C@H](CSN=O)C(=O)NCC(=O)O)C(=O)O`, inactive: -4.78%; with `NC(C(=O)N[C@@H]1C(=O)N2C(C(=O)O)=C(Cl)CS[C@H]12)c1ccccc1` (some centres undefined), inactive: -25.9%. On the same count and under the same terms, with `NC(=NCc1ccccc1)NC(=O)c1nc(Cl)c(N)nc1N` the figure was inactive: -18.5%. Still for that read-out and setting: under `O=C(O)c1cc(O)c2c(c1)C(=O)c1cccc(O)c1C2=O` stands inactive: -0.291% and inactive: -27.5%; under `Cc1nnc(SCc2cc(=O)oc3ccc4ccccc4c23)n1Cc1ccccc1`, inactive: 35%; under `O=C(Nc1ccn(Cc2ccccc2F)n1)c1ccc(COc2cc(Cl)ccc2Cl)o1`, inactive: 194%.

Take `COC(=O)[C@H](Cc1ccccc1)NC(=O)O[C@H]1C(=O)c2cc(OC)ccc2O[C@@H]1c1ccc(OC)c(Br)c1`: the activity change, negative = inhibition is inactive: -18.3% and inactive: -4.5%.

Turning to `COc1ccc(C(=O)N/C(=C/c2cccc3ccccc23)C(=O)NCCc2c[nH]c3ccccc23)cc1OC`, the activity change, negative = inhibition was inactive: -12.7%. Consider `CC(C)NC[C@@H](O)c1ccc(O)c(O)c1`, for which the activity change, negative = inhibition is inactive: -2.34%.

For `COc1cc(C2Oc3cc(C4Oc5cc(O)cc(O)c5C(=O)C4O)ccc3OC2CO)ccc1O` (centres undefined), the activity change, negative = inhibition was inactive: -21.4%. Same read-out and setting: with `N#C/C(=C\c1cn(CCOc2ccccc2F)c2ccccc12)C(=O)NCc1cccs1` the figure was inactive: 399%.

Source of the values: PubChem BioAssay AID894 (National Center for Advancing Translational Sciences (NCATS), 2007).
